# Test results as given in patent US11178870B2 (priority 2017, dated 2021).
# Key:
# Magnaporthe grisea = format: in vivo; conditions: class of control value, Table 7
# Phytophthora infestans = format: in vivo; conditions: class of control value, Table 7
# [1] = test system: Colletotrichum orbiculare; conditions: 250 ppm spray, 2.5 ml/pot; investigated 6 to 10 days after inoculation
Compound,Test A control value (blast on rice) (Magnaporthe grisea),Test F control value (late blight on tomato) (Phytophthora infestans),Test H control value (anthracnose on cucumber) [1]
CCn1c(-c2ccccc2C(F)(F)F)c(-n2cc(C)cn2)cc(Br)c1=O [Compound 374],L (L shows the control value of 50% or less),L (L shows the control value of 50% or less),H (H shows the control value more than 50%)
Cc1cnn(-c2cc(Br)c(=O)n(N)c2-c2ccc(F)cc2F)c1Cl [Compound 376],L (L shows the control value of 50% or less),L (L shows the control value of 50% or less),H (H shows the control value more than 50%)
CCn1c(-c2c(F)cccc2F)c(-c2sccc2C)cc(Cl)c1=O [Compound 381],H (H shows the control value more than 50%),H (H shows the control value more than 50%),H (H shows the control value more than 50%)
